Laboratory results published in PubChem BioAssay AID1346428 (National Center for Advancing Translational Sciences (NCATS), 2018).
In all, about 48,000 compounds went through this assay and about 1,200 (2.5%) were called active. Not shown: some 2% with an inconclusive outcome.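 Rule for the calls: active = activation of at least 60% and not above a set upper limit (about 1 call in 100 departs from these limits); inconclusive = activation of 40% to 60%, or above that upper limit; inactive = activation under 40%.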 The list shows a part of the results.

biological target: Probable G-protein coupled receptor 32 (Homo sapiens) (UniProt O75388); experiment: qHTS for Agonists of Human Resolvin D1 Receptor DRV1; details: CHO-K1 GPR32 beta-arrestin PathHunter luminescence, 90 min; at 76.9 µM; stronger effect = higher value; zero percent set by DMSO-only wells; note: 0% is about no effect
Method in brief: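 Agonism was scored by beta-Gal fragment complementation (chemiluminescent read, 1 h detection at ambient temperature) reporting beta-arrestin binding to GPR32 in engineered CHO-K1 cells. Compound treatment lasted 90 min at 37 C, normalized to a DMSO basal control.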

Chain of UniProt O75388 (O75388 whole entry, looked up, the tested form may be a part): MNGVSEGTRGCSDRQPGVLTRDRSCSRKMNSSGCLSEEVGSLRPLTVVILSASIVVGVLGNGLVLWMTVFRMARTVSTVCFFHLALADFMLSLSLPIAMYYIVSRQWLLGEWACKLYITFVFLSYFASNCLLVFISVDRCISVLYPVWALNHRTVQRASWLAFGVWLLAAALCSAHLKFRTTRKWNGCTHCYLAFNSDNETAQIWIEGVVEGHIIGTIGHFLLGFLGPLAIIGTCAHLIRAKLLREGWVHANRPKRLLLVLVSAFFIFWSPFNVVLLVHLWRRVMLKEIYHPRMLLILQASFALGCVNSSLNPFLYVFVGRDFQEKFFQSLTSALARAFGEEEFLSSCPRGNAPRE

activation, inactive:
CCCSc1nc2c(c(=O)[nH]1)C(c1ccc(F)cc1F)CC(=O)N2 (stereo unspecified) -4.49%
O=C(Cn1ncc2ccsc2c1=O)N1CCN(c2ccccc2)CC1 -0.808%
CCOc1ccc(NC(=O)[C@H](Cc2ccccc2)N2Cc3ccccc3C2=O)cc1 28.2%
O=S(=O)(Nc1cccc(-c2ccc(N3CCOCC3)nn2)c1)c1ccccc1C(F)(F)F 22.1%
CCN(CC)c1cc2c(cc1F)c(=O)c(S(=O)(=O)c1ccc(C)cc1)cn2Cc1ccc(F)cc1 -4.81%
CCCN1CCN(c2ncnc3sc(C(=O)Nc4cccc(Cl)c4C)c(C)c23)CC1 -8.72%
O=C(NCCc1ccc(Cl)cc1)c1nc(-c2cccc(F)c2)n2c1CCCCC2 -25.3%
CCOc1ccc(CNC(=O)CN2C(=O)C3CCCCN3c3ccc(C(=O)N4CCCC4)cc32)cc1 (stereo unspecified) -14.1%
CC(C)Oc1ccc(C(=O)N2CC(=O)Nc3ccc(F)cc3C2c2ccc(F)cc2)cc1 (stereo unspecified) -27.8%
COCCNc1ncnc2onc(-c3ccc(F)cc3)c12 25.7%
COc1cc(CNc2ccc3[nH]c(=O)[nH]c3c2)cc(Br)c1OCc1ccc(F)cc1 18.6%
COc1ccccc1CNC(=O)c1cc2cc(C)ccc2n1C 18.4%
COc1ccc(Cn2ccc3nc(C)c(C(=O)N4CCN(c5cc(C)ccc5C)CC4)cc3c2=O)cc1 -23.5%
O=C(CSc1nc(-c2ccccc2)nc2c1CCCC2)c1ccc(Cl)cc1 7.37%
O=C(O)CCc1ccc(-c2cccs2)n1CC(=O)Nc1ccccc1C(F)(F)F -15.3%
Cc1ccc(C)c(NC(=O)Cn2c(=O)n(Cc3ccc4c(c3)OCO4)c(=O)c3ccc(C(=O)NC4CCCCC4)cc32)c1 -2.55%
CCOc1ccc(CNC(=O)c2cnc3sc(N4CCCCCC4)nn3c2=O)cc1OC -6.01%
Cc1ccc(S(=O)(=O)c2nc(S(=O)(=O)c3ccc(C)cc3)c(NC(C)C)s2)cc1 -13.9%
Cn1cc(C(F)(F)F)nc1-c1ccc(OCC(O)CNCCOc2ccc(O)c(C(N)=O)c2)cc1 (stereo unspecified) -2.1%
CCc1cccc(C)c1NC(=O)C(CC)n1ncn2c(cc3cc(C)ccc32)c1=O (stereo unspecified) -15.2%
Cc1ccc2c(c1)CC(C)N2S(=O)(=O)c1nnc(NC(=O)C(C)C)s1 (stereo unspecified) 3.01%
CCCN(C(=O)c1sc2nc3n(c(=O)c2c1C)CCCC3)c1ccccc1C -11.2%
CCCNC(=O)C1CCC(Cn2c(=O)c3sccc3n(CC(=O)Nc3ccccc3C)c2=O)CC1 (stereo unspecified) 2.58%
Cc1cccc(NC(=O)C2CCN(S(=O)(=O)c3ccc4c(c3)CCCC(=O)N4)CC2)c1 -12%
COC(=O)c1c(NC(=O)c2cc3nc(-c4ccc(Br)cc4)cc(C(F)(F)F)n3n2)sc2c1CCCC2 -21.7%
COc1ccc(OC)c(NC(=O)N2CCC(N3CCN(Cc4ccc(F)cc4)C(=O)C3=O)CC2)c1 20.8%
CCc1ccc(Nc2cc(C(=O)NCCCN(C)c3ccccc3)c3ccccc3n2)cc1 -17.2%
CCOc1ccc(CCNC(=O)c2sc3ncccc3c2-n2c(C)ccc2C)cc1 4.79%
CCc1noc(-c2ccc(N(C)Cc3ccc(OC)cc3)c([N+](=O)[O-])c2)n1 -12.7%
COc1ccc(-c2cc(C(F)(F)F)nc(SCCC(=O)Nc3cccc(O)c3)n2)cc1 31.7%
Cc1cc(=O)n(CC(=O)Nc2cccc([N+](=O)[O-])c2)c(-n2nc(C)cc2C)n1 -18.9%
CC(NC(=O)c1ccc2nc(Cc3ccccc3)oc2c1)c1ccccc1 (stereo unspecified) -16.5%
Cc1c(Cl)cccc1NC(=O)C(=O)NCC(c1cccnc1)N1CCN(c2ccccc2)CC1 (stereo unspecified) -9.01%
COc1ccc(NC(=O)Cn2cc(C(=O)C3CCCCC3)c3ccccc32)cc1 -15.9%
COCc1cc(C)nc2sc3c(c12)NC(c1ccccc1C(=O)O)N(c1ccc(OC)cc1)C3=O (stereo unspecified) -21.5%
CC(=O)c1ccc(NC(=O)COc2ccccc2-c2nc(-c3ccccc3)no2)cc1 -10.1%
CCc1ccc(C(=O)c2cn(CC(=O)Nc3ccc4c(c3)OCCO4)c3ccc(C)cc3c2=O)cc1 11.8%
CCOC(=O)c1c(C)[nH]c(C)c1S(=O)(=O)NCC(=O)N1CCN(c2cc(Cl)ccc2C)CC1 6.23%
O=C(CCSCc1ccccc1Cl)N1CCN(c2ccc(F)cc2)CC1 -26.9%
CC(Oc1ccccc1)C(=O)N1CCN(Cc2cc(=O)n3nc(-c4ccccc4Cl)sc3n2)CC1 (stereo unspecified) -1.77%
O=c1cc(CN2CCN(S(=O)(=O)c3ccccc3)CC2)nc2sc(-c3ccccc3Cl)nn12 -1.69%
Cc1ccc(C)c(NC(=O)c2nnn(CC(=O)Nc3cccc(C)c3C)c2N)c1 1.73%
O=c1c2c3c(sc2n(Cc2cc(=O)n4ccccc4n2)c(=O)n1-c1ccccc1)CCC3 -12%
Cc1ccc(NC(=O)C(Cc2ccccc2)NS(=O)(=O)c2cccs2)cc1Cl (stereo unspecified) -3.06%
O=C(CS(=O)(=O)c1nc(-c2ccc(Cl)cc2)cn1-c1ccccc1)Nc1ccc(F)cc1F 3.09%
COc1ccccc1CNC(=O)CN1C(=O)c2cccnc2Oc2ccccc21 -10.3%
Cc1ccc(-c2noc(CSc3nnc(C)n3-c3ccc(C)cc3)n2)cc1 -11.8%
COc1ccc(/C=C/c2onc(C)c2S(=O)(=O)N2CCC(C(=O)N3CCCCC3)CC2)cc1 -18.6%
COc1ccc(NC(=O)CCCc2nnc3n(CCC(C)C)c(=O)c4sccc4n23)cc1Cl -19.2%
COc1ccc(OCCSc2nc3ccccc3n2CC(=O)N2CCOCC2)cc1 -11.8%
COc1ccc(-c2cc(C(C)=O)c(C)n2CCC(=O)NC2CCCCC2)cc1 -8.37%
